Measured values published in ChEMBL document CHEMBL4888484, “Replenishing the malaria drug discovery pipeline: Screening and hit evaluation of the MMV Hit Generation Library 1 (HGL1) against asexual blood stage Plasmodium falciparum ,using a nano luciferase reporter read-out” (2022).
In all, about 150,000 compounds went through this assay and about 540 (0.36%) showed an effect of 50% or more. This is one part of the list.

Tested on: Plasmodium falciparum
Experiment: Primary screen in NF54 nanoGlo assay, in single point, at 2uM, 72h; a lower Z score goes with more inhibition
Format: functional, Erythrocyte
Details: timepoint 72 hour

Structure (SMILES)	% Inhibition [%]	Z score
Clc1ccc(-c2c[nH]c([C@@H]3COCCN3C3CCCCC3)n2)s1	-12	1.58
Cc1occc1C(=O)N1C[C@@H](COc2ccncc2)[C@H](C(N)=O)C1	-2	0.38
O=C(c1ccc(OC[C@H]2CCCO2)nc1)N1CCC(F)(F)CC1	4	-0.63
CC1CC2(CCC2)CN1C(=O)C1CCN(C)C(=O)C1 (centres undefined)	-15	1.95
CCCCn1nc(C)nc1-c1cc(C)nc2onc(C)c12	0	-0.02
O=C(NC1CC1)c1ccc(N2CC[C@H](NCc3ccc(F)cc3)C2)nc1	-21	2.13
Cc1ccc(-c2ncn(C3CCCCC3)c2-c2ccc(C(=O)NCc3ccccc3)o2)cc1	-8	1.2
CC1CN(Cc2cnn(C3(C)CCS(=O)(=O)C3)c2)C(C)(C)CO1 (centres undefined)	-1	0.11
CO[C@@H]1CCC[C@@H]2CN(C(=O)c3cccc4[nH]ccc34)C[C@@H]21	2	-0.18
COCC(=O)N1CC[C@H]2CC(=O)Nc3cc(-c4ccccc4)ccc3OCC[C@H]2C1	27	-3.01
CN(Cc1ccc(Br)o1)c1ncccc1S(N)(=O)=O	-12	1.41
CN(C)c1ccc(NC(=O)C2(N(Cc3ccccc3)C(=O)Cn3nnc4ccccc43)CCCC2)cc1	5	-0.62
O=C(NCc1ccccc1F)C1Cc2cc(C(F)(F)F)ccc2N2CCN(c3ccc(F)cc3)CC12 (centres undefined)	-4	0.74
Cc1ccc2nc(-c3cnoc3C)cn2c1	0	0.04
CCc1cccc(CN2C(=O)[C@@H]3CN(C(N)=O)CCN3C2=O)c1	-18	2.15
COCCn1c(C(=O)Nc2nc([C@@H]3CCCO3)n[nH]2)cc2cc(Cl)ccc21	-5	0.49
O=C(NCCc1ccsc1)[C@@H]1CCCO1	-9	0.99
CC1CCN2C(=O)N(c3cccc(N4CCNC4=O)c3)C(=O)C2C1 (centres undefined)	-7	1.26
O=C(O)[C@H]1CN(c2ncccn2)CC12CCCCC2	-17	2.12
Cc1ccc(C)c(C(=O)N2CCC[C@H]2c2ccncc2)c1	0	0.01
CO[C@H]1COC[C@H]1NC(=O)NCC1=CCCCC1	-2	0.21

Structure (SMILES)	% Inhibition [%]	Z score
C[C@H](NC(=O)C1CN(S(C)(=O)=O)C1)c1ccccc1	-13	2.08
C[C@@H]1OCCO[C@@H]1C(=O)Nc1cnnn1-c1ccccc1	-4	0.75
c1cc(N2CCCCC2)ncc1CNC(C1CCC1)C1CCC1	2	-0.25
O=C(c1cnc2ccccc2n1)N1CCCCCC1	0	0.03
CCN1CCN(CC(=O)N2C[C@H]3CC=CC[C@H]3C2)CC1	-2	0.15
CC(C)c1nc(CO[C@H]2CCCc3c[nH]nc32)cs1	-14	1.43
O=C(NC[C@H](O)COc1ccc(F)cc1)C1=CCCCCC1	-9	0.81
CC(C)n1cc(Br)cc1C(=O)O	-6	0.87
O=C([C@H]1C[C@@H]1c1ccc(F)cc1F)N1CC(n2cncn2)C1	-2	0.22
c1ccc(Cc2nnc3n2CCN(CCOc2ccccn2)C3)cc1	-8	0.91
Cn1nc(C(=O)N2CCC(O)(C3CCC3)CC2)c2ccccc2c1=O	6	-1
CCc1c[nH]c2ncnc(N3CC(CO)(c4ccccc4)C3)c12	-1	0.15
COc1cc(C(=O)N[C@@H](c2ccccc2)c2ccc(Cl)cc2)ccc1OCC(=O)N1CCOCC1	-3	0.44
Cc1ccc2c(=O)c(-c3nc(-c4ccc(F)cc4)no3)cn(CC(=O)Nc3ccccc3F)c2n1	-13	1.17
Cc1nnc(N2C[C@H](C)OC(C)(C)C2)c(C#N)c1C	-11	1.42
O=C(N[C@@H]1CC[C@@H](C(F)(F)F)N(Cc2cocn2)C1)C(F)(F)F	-8	1.12
O=C(C1CC1(F)c1ccccc1)N1CCC1 (centres undefined)	3	-0.28
C[C@@H](CN1CC2(CCN(Cc3cc(=O)n4ncnc4[nH]3)CC2)OC1=O)c1ccccc1	-12	1.31
Cc1ccc(C(=O)N2CCN(c3nc(C4CC4)nc4c3cnn4-c3ccccc3)CC2)cc1	-15	1.59
CC1CN(CC2CCN(C(=O)CC3CN(C(=O)OC(C)(C)C)C3)CC2)CC(C)O1 (centres undefined)	-14	1.77
Cc1nccc(NC(=O)c2cnc3c(cnn3[C@@H](C)C3CC3)c2)n1	-1	0.17
